The campaign covered roughly 45,000 compounds. About 200 (0.44%) were called active. Roughly 7% stayed inconclusive and do not appear here. Calls come from the whole dose curve; as a rule, active = well fitted activation curve with a large enough effect; inconclusive = small, poorly fitted or top-dose-only effect; inactive = no such curve, though single readings can be large or run the other way. This is one part of the list.
Assay: qHTS of TDP-43 Inhibitors: NCGC Sytravon Library Screen; note: 0% is about no effect; nearly all actives have a fitted effect of over 55% in size
Conditions: yeast TDP-43 toxicity rescue, BacTiter-Glo growth, 24 h; series mostly up to 46.1 µM; growth rescue (activation): at the top concentration
In short: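 TDP-43-expressing yeast, pregrown in raffinose, seeded at OD600 0.02 in galactose medium with compound for 24 hr at 30 deg C. Growth read by BacTiter-Glo luminescence, so rescue of toxicity appears as activation.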

| SMILES | growth rescue (activation) |
| --- | --- |
| COc1cccc(NC(=S)/C(=C(\[O-])c2ccc(OC(F)F)cc2)[n+]2ccccc2)c1 | inactive: -2.17% |
| CCCCOc1ccc(C(=O)NCC(=O)OCC(=O)c2c(N)n(C)c(=O)n(C)c2=O)cc1 | inactive: 2.91% |
| COc1ccc(CCNC(=O)COC(=O)c2ccc(N3CCCC3=O)cc2)cc1 | inactive: 7.39% |
| S=C(NCCN1CCOCC1)NC1CCCCC1 | inactive: -3.17% |
| O=C(CC(NCc1ccccn1)C(=O)O)Nc1ccccc1Cl (configuration not stated) | inactive: 4% |
| O=C(COC(=O)c1ccc2c(c1)OCCO2)Nc1ccc(F)cc1 | inactive: 14.3% |
| Cc1ccc(Oc2nnc(-c3cccs3)c3ccccc23)cc1C | inactive: -9.32% |
| COCCn1c(-c2ccc(SC)cc2)nc2c1c(=O)[nH]c(=O)n2CC(C)C | inactive: 9.82% |
| Cc1ccc(C(=O)O/N=C(\N)c2ccccn2)cc1 | inactive: 19.1% |
| CC(C)c1ccc(S(=O)(=O)/N=C2\C=C(NS(=O)(=O)c3ccccc3)C(=O)c3ccccc32)cc1 | inactive: 27.4% |
| Cc1ccc(S(=O)(=O)CC(=O)Nc2nc3ccccc3s2)cc1 | inactive: 13% |
| CCc1ccc(N(CC(=O)NCC2CCCO2)C(=O)CCC(=O)Nc2nccs2)cc1 (configuration not stated) | inactive: 15.9% |
| CNC(=O)C1CC(=O)N(c2ccc(OCC(=O)Nc3ccccc3)cc2)C1 (configuration not stated) | inactive: 10.3% |
| COc1ccc(S(N)(=O)=O)cc1C(=O)OCC(=O)Nc1ncc(Cl)c(C)c1Cl | inactive: 6.79% |
| CCOC(=O)C1CCCN(C(=O)c2cc(C)n(C(C)(C)C)n2)CC1 (configuration not stated) | inactive: 10.4% |
| Cc1cc(-c2c(C)[nH]n(-c3ccccc3)c2=O)n[nH]1 | inactive: 18.6% |
| Clc1ccc(-c2cnc3ccccc3n2)cc1 | inactive: 20.9% |
| O=C1Nc2ccccc2N(O)N1c1ccc(S(=O)(=O)N2CCCCCC2)cc1 | inactive: 22.5% |
| O=C(NNC(=O)NC1CCCCC1)NC1CCCCC1 | inactive: 11.9% |
| CC1CCCC(C)N1/N=C/c1ccc(C(=O)O)cc1 (configuration not stated) | inactive: -10.5% |
| O=C(Nc1ccc(Oc2c(F)c(F)c(F)c(F)c2F)cc1)OC1CCN2Cc3ccccc3N=C12 (configuration not stated) | inactive: 11.3% |
| COc1ccc(-c2cnc3c(NC(C)=O)cc(-c4ccc(S(C)(=O)=O)cc4)cn23)cc1OC | inactive: 1.38% |
| CC1(C(=O)Nc2ccc(Cl)c(Cl)c2)CCN1C(=O)Cc1ccc(-c2ccccc2)cc1 (configuration not stated) | inactive: 13.4% |

| SMILES | growth rescue (activation) |
| --- | --- |
| COc1cc2c(cc1OC)/C(=C/C(=O)c1ccc(C)cc1)NCC2 | inactive: 15.3% |
| CCON1C(=O)C(C)(C)N(OCC)C(=O)C1(C)C | inactive: 1.85% |
| COc1cc(C2CC(c3ccccc3)=NN2c2ccccc2)ccc1OCC(=O)O (configuration not stated) | inactive: 5.47% |
| O=C(COC(=O)CCc1nc2ccccc2c(=O)[nH]1)Nc1ccccc1 | inactive: 9.32% |
| COc1ccc(OC)c(NC(=O)CSc2nc3scc(C)c3c(=O)[nH]2)c1 | inactive: 8.81% |
| Cn1c(CC(=O)Nc2ccccc2F)nnc1SCC(=O)Nc1nccs1 | inactive: 3.74% |
| C=CCN(CC=C)C(=O)Cn1cnc([N+](=O)[O-])n1 | inactive: 12.4% |
| O=C(Nc1nnc(SCc2ccc(Cl)cc2)s1)c1cnccn1 | inactive: -5.89% |
| Cc1cccc(S(=O)(=O)Nc2nc3ccccc3nc2NCc2ccco2)c1 | inactive: 21.7% |
| COCCNC(=O)C(c1ccc(O)cc1)N(Cc1ccccc1)C(=O)CCC(=O)Nc1nccs1 (configuration not stated) | inactive: 3.32% |
| COc1ccc(C)cc1S(=O)(=O)NNc1nc(C)cc(C)n1 | inactive: 10.5% |
| Cc1ccc(NC(=O)c2ccco2)c(NC(=O)c2ccccc2)c1 | inactive: -3.57% |
| Fc1ccc(NC(=S)Nc2cccnc2)cc1 | inactive: -10.6% |
| Nn1c(SCC(=O)Nc2ccc3c(c2)OCCO3)nnc1C(F)(F)F | inactive: 4.96% |
| COc1ccc(Cl)cc1N(CC(=O)NCCSc1ccccn1)S(=O)(=O)c1ccccc1 | inactive: 14.7% |
| O=C(Cc1ccccc1)NNC(=O)C1CC=CCC1 (configuration not stated) | inactive: -6.74% |
| COc1ccc(-c2cc3cc(OC)c(OC)cc3c(C)n2)cc1 | inactive: 12.6% |
| O=C(CN1C(=O)CS/C1=C\c1nc(-c2ccc(Cl)cc2)cs1)Nc1cccnc1Cl | inactive: -22.7% |
| CS(=O)(=O)N1CCC(Oc2ccccc2C(=O)N2CCNC(=O)C2)CC1 | inactive: -1.5% |
| Cc1ccc(C)c(N2CCN(c3ccc(N4C(=O)COCC4=O)cc3[N+](=O)[O-])CC2)c1 | inactive: 7.57% |
| Cc1cccc(/C=C/c2nc3ccccc3c(=O)[nH]2)c1 | inactive: 17.6% |
| O=C(NCc1ccc(Cl)cc1)N1CCN(S(=O)(=O)c2ccccc2)CC1 | inactive: 7.99% |
| COC(=O)CSc1[nH]c2ccc(Br)cc2c1[N+](=O)[O-] | inactive: -0.129% |

| SMILES | growth rescue (activation) |
| --- | --- |
| COc1ccc(NC(=O)CN2C(=O)NC(C)(c3ccccc3)C2=O)c(OC)c1 (configuration not stated) | inactive: -0.726% |
| O=C(CCNS(=O)(=O)c1ccccc1C(F)(F)F)NCCCN1CCOCC1 | inactive: 0.984% |
| COc1ccc(NS(=O)(=O)c2ccc(OC)c(NC(=O)CCC3CCCC3)c2)cc1 | inactive: -19.1% |
| Cc1cccc(N(C(=O)c2snc(C(N)=O)c2N)C(C(=O)NCC2CCCO2)c2cccs2)c1 (configuration not stated) | inactive: -8.69% |
| COc1ccc(/C=C/C(=O)OCC(=O)c2c(C)[nH]c3ccccc23)cc1OC | inactive: 2.52% |
| O=C(Cc1ccc(Cl)cc1)OCC(=O)N1CCCCCC1 | inactive: 9.24% |
| O=C(CN1C(=O)NC2(CCCc3ccccc32)C1=O)NCC(F)(F)F (configuration not stated) | inactive: 1.61% |
| ClCCN1C2=NCCCN2c2ccccc21 | inactive: -6.56% |
| CCCN(CCC)C(=O)c1cc2c(=O)n3cccc(C)c3nc2s1 | inactive: 3.33% |
| O=C(CCS(=O)(=O)c1ccc(Cl)cc1)NCCc1c[nH]c2ccccc12 | inactive: 0.826% |
| Cc1cc(C(=O)OCC(=O)Nc2ccccc2Br)c(C)o1 | inactive: 8.8% |
| CC(C)NC(=O)C(=O)NCCN1CCN(C(=O)c2ccc(C(C)(C)C)cc2)CC1 | inactive: -3.54% |
| O=C(c1cccc(F)c1)N1CCN(C(=O)c2cc3nc(-c4ccco4)cc(C(F)(F)F)n3n2)CC1 | inactive: 19.8% |
| CCS(=O)(=O)c1ncc(Cl)c(C(=O)N2CCN(c3ccc(OC)cc3)CC2)n1 | inactive: 15.8% |
| O=C(NC1CCCCC1)c1ccc2c(c1)OCCO2 | inactive: 0.0614% |
| Cc1ccc(CNC(=O)CCc2cn(C)c3ccccc23)cc1 | inactive: 20.5% |
| CNc1c(NS(=O)(=O)c2ccc3c(c2)CCCC3)c(=O)oc2ccccc12 | inactive: 7.37% |
| CN(C)c1cccc(CNC(=O)c2csc([C@@H]3O[C@H](CO)[C@H](O)[C@H](O)[C@H]3O)n2)c1 | inactive: 2.95% |
| Cc1ccc(C)c(NC(=S)/C(=C(\[O-])c2ccc(OC(F)F)cc2)[n+]2ccccc2)c1 | inactive: -3.65% |
| Cc1nc(N2CCOCC2)nc(OCCN2CCOCC2)c1[N+](=O)[O-] | inactive: 7.27% |
| CC1(C(=O)NS(=O)(=O)c2cccc(OC(F)F)c2)CCN1C(=O)C1CCCCC1 (configuration not stated) | inactive: 6.62% |

Source: PubChem BioAssay AID1347073 (National Center for Advancing Translational Sciences (NCATS), 2019)
